Experimental data taken from publication PMC4336329 (PLoS ONE, 2015).
Among all 310,000 compounds or so, about 14,000 (4.5%) showed an effect of 50% or more. The effect is printed as a negative number. The list shows a part of the results.

biological target: human ether-à-go-go-related gene (hERG) potassium channel (human, UniProt Q12809); assay: primary screen, population patch clamp on CHO cells stably expressing hERG
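Also: peak tail current of the secondary pulse compared with the same well before compound.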

Chain of human ether-à-go-go-related gene (hERG) potassium channel (Q12809 whole entry, looked up): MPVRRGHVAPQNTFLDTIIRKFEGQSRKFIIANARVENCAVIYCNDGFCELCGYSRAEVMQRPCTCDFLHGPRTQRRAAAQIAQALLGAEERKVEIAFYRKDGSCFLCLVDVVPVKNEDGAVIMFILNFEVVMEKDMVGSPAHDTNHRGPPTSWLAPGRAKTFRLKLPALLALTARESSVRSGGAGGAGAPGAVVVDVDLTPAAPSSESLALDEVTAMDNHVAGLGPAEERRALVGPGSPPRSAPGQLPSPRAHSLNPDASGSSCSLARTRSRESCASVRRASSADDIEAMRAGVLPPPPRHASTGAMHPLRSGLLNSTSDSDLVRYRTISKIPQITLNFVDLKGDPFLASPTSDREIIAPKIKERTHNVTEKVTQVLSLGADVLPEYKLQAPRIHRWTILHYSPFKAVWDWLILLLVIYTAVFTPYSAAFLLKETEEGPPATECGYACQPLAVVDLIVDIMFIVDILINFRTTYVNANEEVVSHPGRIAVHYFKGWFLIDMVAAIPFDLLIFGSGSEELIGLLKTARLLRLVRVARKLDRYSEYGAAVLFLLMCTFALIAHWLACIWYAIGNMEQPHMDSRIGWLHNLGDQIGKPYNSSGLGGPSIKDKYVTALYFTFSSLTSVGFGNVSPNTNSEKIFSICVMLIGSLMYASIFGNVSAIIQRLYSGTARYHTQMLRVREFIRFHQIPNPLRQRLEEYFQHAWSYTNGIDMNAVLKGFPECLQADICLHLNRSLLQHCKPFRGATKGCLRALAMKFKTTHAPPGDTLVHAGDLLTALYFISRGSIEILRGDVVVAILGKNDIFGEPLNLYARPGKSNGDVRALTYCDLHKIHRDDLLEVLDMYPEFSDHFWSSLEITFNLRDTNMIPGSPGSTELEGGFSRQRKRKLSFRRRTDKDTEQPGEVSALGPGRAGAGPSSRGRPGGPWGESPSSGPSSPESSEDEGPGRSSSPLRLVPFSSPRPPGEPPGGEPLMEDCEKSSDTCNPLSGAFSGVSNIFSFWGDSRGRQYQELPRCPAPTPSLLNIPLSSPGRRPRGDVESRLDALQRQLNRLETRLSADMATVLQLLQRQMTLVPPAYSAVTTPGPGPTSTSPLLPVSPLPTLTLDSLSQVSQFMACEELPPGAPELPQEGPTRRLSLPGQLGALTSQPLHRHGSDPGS

SMILES	hERG current change (%, negative = inhibition) at 10uM [%]
CCc1ccc(-c2ccc(SCC(=O)NCC3CCCO3)nn2)cc1 (centres unmarked)	-8.17
CCOc1ccc(/C(O)=C2\C(=O)C(=O)N(c3cc(C)on3)C2c2ccccc2OC)cc1 (centres unmarked)	5.46
COCCCNc1ncnc2c1sc1nc(-c3ccco3)c3c(c12)CC(C)(C)OC3	-1.11
O=C(CNc1cccc2ccccc12)N/N=C/c1ccccn1	-11.2
O=c1[nH][nH]cc1C=Nc1ccc(Cl)cc1Cl	20.6
COc1ccc(NC(=O)c2coc(C)c2)cc1	8.01
CC(C)(C)c1ccc(NC(=O)COC(=O)c2ccc(NS(=O)(=O)c3ccc(F)c(F)c3)cc2)cc1	15.7
COc1ccc(/C=C/C(=O)N2CCCc3ccccc32)c(OC)c1	8.22
COC(=O)C1CCN(Cc2cn(-c3ccccc3)nc2-c2ccc3c(c2)OCO3)CC1	-33.7
COc1ccc(CCNC(=O)CSc2nnc(NC(C)=O)s2)cc1OC	7.1
O=C(O)C1CC(=O)N(Cc2ccccc2)C1 (centres unmarked)	19.9
CN(c1ccc(C(=O)Nc2nccs2)cc1)S(=O)(=O)c1ccccc1	-19.9
COCCC1CCCCN1C(=O)c1cc(COc2ccc(-n3cncn3)cc2)on1 (centres unmarked)	-43.6
CC(C)Cn1cc(C(=O)N2CCN(c3ccccn3)CC2)c2c3ccccc3n(C)c2c1=O	-29.2
Cc1cc(NC(=O)/C=C/c2ccccc2)c(C(C)C)cc1O	10.7
Cc1ccc(C)c(NC(=O)CCn2cnnn2)c1	8.08
O=C(CNC(=O)c1cccs1)N/N=C/c1cccc(Cl)c1	-5.74
CC1(C)N=C(N)N=C(N)N1c1cccc(C(=O)O)c1.Cl	2.64
O=C(NCCSc1ccccc1)c1ccccc1Cl	5.57

SMILES	hERG current change (%, negative = inhibition) at 10uM [%]
CCOc1ccc(N(C(=O)c2snc(C(N)=O)c2N)C(C(=O)NC2CCCC2)C(C)C)cc1 (centres unmarked)	13.4
COc1cccc(/C=N/NC(=O)c2cccc(N3CCCC3=O)c2)c1	-24.9
C=Cn1cc[n+](CC(=O)c2ccc(Br)cc2)c1.[Br-]	9.59
CCCCOC(=O)c1ccc(NC(=O)C(=O)NCc2cccnc2)cc1	-11.6
COc1cccc(NC(=O)COC(=O)/C=C/c2ccco2)c1	-4.68
CCCS(=O)(=O)NCCc1csc(-c2ccc(OC)c(OC)c2)n1	-2.73
CC(CNC(=S)Nc1cc(F)cc(F)c1)CSc1ccc(Cl)cc1 (centres unmarked)	8.6
CC1CCc2c(sc3ncnc(SCC(=O)c4ccccc4)c23)C1 (centres unmarked)	15.5
Cc1ccc(NC(=O)Cn2nnc3ccccc32)c(C)c1	11
COc1cc(/C=N\NC(=O)c2ccc(-c3ccccc3)cc2)cc(Br)c1O	16
CCc1cc(=O)[nH]c(SCC(=O)N2CCC(Cc3ccccc3)CC2)n1	-36.7
COCCCNC(=O)CSc1ccsc1[N+](=O)[O-]	11
C=CCOC(=O)C1=C[C@@H](c2ccc(C(F)(F)F)cc2)C[C@@H](OCc2ccc(CO)cc2)O1	-47.4
CCc1ccc(OCCNc2cc(N3CCNC(C)C3)ccc2[N+](=O)[O-])cc1 (centres unmarked)	-14.8
CCOC(=O)[C@@H]1[C@H]2COc3ccc(Br)cc3[C@@H]2N2C(=O)N(c3cccc(C)c3)C(=O)[C@]12C	6.18
Cc1ccc(C(=O)Nc2cccnc2)cc1S(=O)(=O)N1CCOCC1	-1.68
CCC[n+]1cn(/C(C(=S)Nc2cccc(Cl)c2C)=C(/[O-])c2ccc(OC)c(OC)c2)c2ccccc21	-0.928
O=C(Nc1ccc2[nH]c(=S)sc2c1)Nc1ccccc1F	15.3
O=C1/C(=C/c2ccc([N+](=O)[O-])cc2)Oc2cc(O)ccc21	11.9

SMILES	hERG current change (%, negative = inhibition) at 10uM [%]
O=C(Cc1ccc2cccnc2c1)c1ccc(O)cc1O	7.3
O=C(COc1cc(Cl)ccc1Cl)Nc1nnc(CC(=O)N2CCOCC2)s1	7.48
O=C(c1ccc(CS(=O)(=O)c2cccc(C(F)(F)F)c2)o1)N1CCN(c2ccccn2)CC1	-27
O=C1N/C(=N\c2ccccn2)SC1Cc1ccc(Cl)cc1 (centres unmarked)	4.11
Nc1ccn(Cc2cccc(F)c2)n1	16.1
O=C(Nc1ccccc1Cl)c1cc(S(=O)(=O)N2CCOCC2)cs1	-9.07
CCSc1nc(-c2ccccc2)c2cc(Cl)ccc2n1	11.4
Cn1c(=O)c2c(nc(CN3CCN(C(c4ccccc4)c4ccccc4)CC3)n2CC(N)=O)n(C)c1=O	-5.62
O=C(O)CC(NC(=O)Cc1ccc([N+](=O)[O-])cc1)c1ccc2c(c1)OCO2 (centres unmarked)	4.42
CCOc1ccc(OCc2ccc(C(=O)N(C)c3ccccc3)o2)cc1	-13.9
Cc1csc(NC(=O)c2cccnc2)n1	13.5
CCOC(=O)c1cc(C(O)(C(F)(F)F)C(F)(F)F)c(/N=C/N(C)C)o1	3.36
CC(Oc1ccc2oc(-c3ccccc3)c(C(=O)O)c2c1)C(=O)O (centres unmarked)	14.7
O=C(CN1C(=O)NC2(CCCC2)C1=O)Nc1cccc(Cl)c1Cl	14.1
CCC(C)N1CCN(S(=O)(=O)Cc2ccccc2)CC1 (centres unmarked)	11.7
O=C(O)CC(Cc1ccccc1)c1ccc2c(c1)OCO2 (centres unmarked)	14.4
COc1ccc(-n2c(N)c(C(=O)Nc3c(C)n(C)n(-c4ccccc4)c3=O)c3nc4ccccc4nc32)cc1	-28.2
Cc1cc(NC(=O)CSc2nc3ccccc3n2CCC#N)no1	10.8
